# From PubChem BioAssay AID1347120 (National Center for Advancing Translational Sciences (NCATS), 2019)
# Among all 390,000 compounds or so, about 930 (0.24%) were called active. The inconclusive results got no clear call from the source; some entries with a clear call stand among them for comparison. Calls come from the whole dose curve; as a rule, active = well fitted activation curve with a large enough effect; inconclusive = small, poorly fitted or top-dose-only effect; inactive = no such curve, though single readings can be large or run the other way. A potency beside an inconclusive call is a rough fit, not a confirmed value.
# Test: qHTS for Suppressors of FUS Proteinopathy: Primary screen using FUS-linked yeast assay; note: nearly all actives have a fitted effect of over 55% in size
# Details: S. cerevisiae FUS-expressing, OD600, 24 h; Potency: growth rescue; series mostly up to 76.6 µM
# Outline: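 Quantitative HTS measuring growth restoration of FUS-toxic yeast. Galactose-induced cells (OD 0.005) were exposed 24hr at 30C to compounds at several concentrations, then absorbance at 600 nm was recorded.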
# Potency is the fitted concentration of half-maximal effect; tags give direction and shape of the fitted curve.
row,SMILES,Potency
1,O=C(c1ccc(Oc2ccccc2)cc1)c1nc2c(n1O)CCCC2,"inconclusive: 50.1 µM [activator, single point]"
2,O=C(OCC1OC(n2cnc3c(N(C(=O)c4ccccc4)C(=O)c4ccccc4)ncnc32)C(O)C1F)c1ccccc1 (centres undefined),"inconclusive: 22.4 µM [activator, partial curve, poor fit]"
3,Cc1cccc2cc(CN(CC(C)C)S(=O)(=O)c3ccccc3)c(=O)[nH]c12,"inconclusive: 3.16 µM [activator, full curve]"
4,CC1(C)CC[C@]2(C(=O)O)[C@H](O)C[C@]3(C)C(=CCC4[C@@]5(C)C[C@H](O)[C@H](O)[C@@](C)(CO)C5CC[C@]43C)[C@@H]2C1 (some centres undefined),"inconclusive: 50.1 µM [activator, single point]"
5,CCOc1cc(/C=C2\C(=N)N3N=C(N4CCCCC4)SC3=NC2=O)ccc1OC(=O)c1ccco1,"inconclusive: 20 µM [activator, partial curve]"
6,COc1ccc(C2c3[nH]c4ccccc4c3CCN2C(=O)c2cc3ncccn3n2)c(F)c1 (centres undefined),"inconclusive: 35.5 µM [activator, partial curve, poor fit]"
7,COc1ccc(NC(=O)N2CCc3c([nH]c4ccc(OC)cc34)C2c2ccc(OC)cc2)cc1 (centres undefined),"inconclusive: 35.5 µM [activator, single point]"
8,Cc1ccc(Cl)cc1N(C)C(=O)c1cnc(N2CCOCC2)c2ccccc12,inactive
9,O=C(CSc1nnc(-c2ccco2)n1-c1ccc(Cl)cc1)Nc1cccc2ccccc12,"inconclusive: 22.4 µM [activator, partial curve, poor fit]"
10,O=C(NCc1cccs1)C1CCC(CNS(=O)(=O)c2cccc3cccnc23)CC1 (centres undefined),inactive
11,O=C(CCCn1c(=S)[nH]c2ccccc2c1=O)NCCSCc1ccccc1,"inconclusive: 2 µM [activator, partial curve, poor fit]"
12,O=C(Oc1cccc(NC(=O)c2ccccc2Cl)c1)c1ccc([N+](=O)[O-])cc1,inactive
13,O=C(CSc1nc(-c2ccccc2)c(-c2ccccc2)o1)N1CCOCC1,inactive
14,CCCCNC(=NCc1cccc(C(F)(F)F)c1)Nc1ccccc1,"inconclusive: 14.1 µM [activator, partial curve, poor fit]"
15,CN(C)c1nc(OCCNC(=O)COc2ccc(Cl)cc2Cl)nc(N(C)C)n1,inactive
16,COc1ccc(CCNC(=O)C23CN(Cc4ccccc4)CC2C(c2cccc([N+](=O)[O-])c2)=NO3)cc1 (centres undefined),"inconclusive: 39.8 µM [activator, single point]"
17,Cc1ccc(NC2c3ncccc3C(=O)N2Cc2ccc(F)cc2)cc1 (centres undefined),"inconclusive: 5.01 µM [activator, full curve]"
18,Cc1c(C(=O)OC/C(O)=C(\C#N)c2nc3ccccc3[nH]2)oc2ccccc12,inactive
19,Fc1ccc(Nc2ncnc3c2nc2n3CCCC2)cc1,inactive
20,Cc1ccccc1CNC(=O)c1ccccc1C(=O)O,"inconclusive: 3.98 µM [activator, partial curve, poor fit]"
21,COc1cccc(Nc2nnc(SCC(=O)N3CC(=O)Nc4ccccc43)s2)c1,"inconclusive: 39.8 µM [activator, single point]"
22,CC(C)(O)CC[C@@H](O)[C@](C)(O)C1CC[C@@]2(O)C3=CC(=O)[C@@H]4C[C@@H](O)[C@@H](O)C[C@]4(C)C3CC[C@]12C (some centres undefined),inactive

row,SMILES,Potency
1,O=C(Nc1ccc(Cl)cc1)c1ccc2c(c1)N(Cc1ccccc1)C(=O)c1ccccc1S2(=O)=O,"inconclusive: 22.4 µM [activator, partial curve, poor fit]"
2,O=C(NCc1nc2ccccc2[nH]1)C1=C[C@@H](c2ccc(C(F)(F)F)cc2)C[C@@H](OCc2ccc(CO)cc2)O1,active: 31.6 µM
3,C[C@H]1CN([C@@H](C)CO)S(=O)(=O)c2ccc(Br)cc2O[C@H]1CN(C)S(=O)(=O)c1ccccc1,"inconclusive: 22.4 µM [activator, single point]"
4,Clc1cccc(Cc2c(-c3cccc(Br)c3)nc3c4ccccc4ccn23)c1,inactive
5,CC(C)CN(C(=O)CCC(=O)OCC(=O)c1ccc(F)c(F)c1)c1c(N)n(CC(C)C)c(=O)[nH]c1=O,"inconclusive: 39.8 µM [activator, single point]"
6,COC(=O)c1cccc(Cn2ccc3ccc(-c4ccc5ccn(Cc6cccc(C(=O)OC)c6)c5c4)cc32)c1,"inconclusive: 22.4 µM [activator, single point]"
7,COc1cccc(-c2cc(C(F)(F)F)nc(NCc3ccc(F)cc3)n2)c1,inactive
8,COc1ccc(CNC(=O)Cc2c(C)c3ccc(O)cc3oc2=O)cc1,inactive
9,Cc1cccc(C)c1NC(=O)c1ccc2nc(CCc3ccccc3)oc2c1,inactive
10,COc1ccc(N2CC(C(=O)Nc3nnc(SCC(=O)N4CCOCC4)s3)CC2=O)cc1 (centres undefined),"inconclusive: 22.4 µM [activator, partial curve, poor fit]"
11,COC1CCN(C(=O)c2cc(COc3cc(C)ccc3C)on2)CC1,inactive
12,COc1cccc2oc3cc(C#CC4(O)CCCCC4)ccc3c(=O)c12,inactive
13,CCN(CC)C(=S)SCC(=O)c1c(C)[nH]c2ccccc12,"inconclusive: 3.98 µM [activator, partial curve, poor fit]"
14,CC(=O)c1cccc(-c2ccc3c(c2)C(C)(Cc2ccccc2F)C(=O)N3)c1 (centres undefined),"inconclusive: 31.6 µM [activator, single point]"
15,COc1ccc(-n2c(-c3ccc(Cl)cc3)cc3c2CC(C)(C)CC3=O)c(OC)c1,"inconclusive: 50.1 µM [activator, single point]"
16,CCCCNc1c(-c2ccc(OC)c(SC(C)CC)c2)nc2ccc(Cl)cn12 (centres undefined),"inconclusive: 50.1 µM [activator, single point]"
17,Cc1cccc(-n2cc(-c3ccccc3)nc2SCC(=O)Nc2ccccc2Cl)c1,inactive
18,COc1ccc(Nc2nc(N3CCCCC3)nc3ccccc23)c(OC)c1,inactive
19,CC1CC2=C(NC(=S)NC2c2cccc(F)c2)/C(=C/c2cccc(F)c2)C1 (centres undefined),inactive
20,COc1ccc(-c2nc3ccccn3c2NC2CCCCC2)cc1SC1CCCCC1,"inconclusive: 17.8 µM [activator, partial curve, poor fit]"
21,CCCCC(NC(=O)Cc1c(C)c2cc3c4c(oc3cc2oc1=O)CCCC4)C(=O)O (centres undefined),"inconclusive: 20 µM [activator, partial curve, poor fit]"
22,N/C(=N\OC(=O)CC1CCCCC1)c1ccccn1,inactive

row,SMILES,Potency
1,CCOC(=O)CC[C@@H]1CC[C@]2(CCCN(C(=O)C3CCCCC3)C2)O1,inactive
2,COC(=O)c1ccc(OC)c(CN2CCCN(Cc3cc(C)ccc3C)S2(=O)=O)c1,"inconclusive: 7.08 µM [activator, full curve]"
3,COc1cccc(NC(=S)Nc2cc(C(=O)O)ccc2N2CC3CC(C2)c2cccc(=O)n2C3)c1 (centres undefined),"inconclusive: 22.4 µM [activator, single point]"
4,COC(=O)[C@]12C[C@H](CC(=O)NCC3CCCCC3)C(=O)N(Cc3cccc4ccccc34)C1=C[C@H](C1CCCC1)O[C@@H]2C,active: 31.6 µM
5,N#Cc1ccsc1NC(=O)COC(=O)c1ccc(Br)o1,"inconclusive: 22.4 µM [activator, single point]"
6,COc1ccc(S(=O)(=O)N(C)C[C@H]2Oc3c(NS(=O)(=O)c4ccc(F)cc4)cccc3C(=O)N([C@H](C)CO)C[C@@H]2C)cc1,"inconclusive: 31.6 µM [activator, single point]"
7,Cc1ccc(S(=O)(=O)N2CC3(O)CN(C(=O)OC(C)C)N(C(=O)OC(C)C)CC3(OC(=O)NCc3ccccc3)C2)cc1 (centres undefined),"inconclusive: 31.6 µM [activator, single point]"
8,CC1CCC2(CCC(=O)N2CCCOC(=O)Nc2cccc(C(F)(F)F)c2)CC1 (centres undefined),inactive
9,Cc1cc(C)cc(OCCn2nnc3ccccc32)c1,inactive
10,Cc1ccc(Cl)cc1NC(=O)c1oc2ccc(S(=O)(=O)N3CCC4(CC3)OCCO4)cc2c1C,inactive
11,O=C(COC(=O)c1ccccc1C(=O)c1ccc(Cl)cc1)NCc1ccccc1,"inconclusive: 20 µM [activator, partial curve, poor fit]"
12,Cc1c(C(=O)N2CCOCC2)[nH]c2c1C(=O)CC(c1ccc(Cl)cc1)C2 (centres undefined),"inconclusive: 4.47 µM [activator, single point]"
13,COc1cccc(S(=O)(=O)N(C)C[C@@H]2Oc3cc(Br)ccc3S(=O)(=O)N([C@@H](C)CO)C[C@@H]2C)c1,"inconclusive: 22.4 µM [activator, single point]"
14,O=C(Nc1ccccc1)N1CCSc2ccccc21,inactive
15,CCCc1nn2c(=O)cc(COC(=O)c3ccc(NC(=O)c4cccs4)cc3)nc2s1,"inconclusive: 6.31 µM [activator, partial curve, poor fit]"
16,Cn1c(=O)c2c(-c3ccccc3)n(-c3ccc(N)cc3)cc2n(C)c1=O,"inconclusive: 5.01 µM [activator, full curve]"
17,CN(C)S(=O)(=O)c1cccc(NC(=O)CSc2ncnc3ccccc23)c1,"inconclusive: 50.1 µM [activator, partial curve, poor fit]"
18,Cc1cccc(-n2ccnc2SCC(=O)Nc2ccccc2C(F)(F)F)c1,inactive
19,Cc1cc(Br)ccc1SCC(=O)OCC(=O)c1c(N)n(C)c(=O)n(C)c1=O,"inconclusive: 35.5 µM [activator, single point]"
20,CC(C)(CO)NC(=O)C12CC3CC(CC(Br)(C3)C1)C2,inactive
